Data taken from the supplement of paper PMC7826260.
Some of the results follow. The data describe in vitro nicking of single-stranded DNA by Rep domains for 1 h at 37 °C with 3 µM enzyme; only the middle of the 90-letter strands is printed. Uncut reads are compared with the no-enzyme pool on a log2 scale; more negative means more cut, near 0 not cut, and no call is made. Shares of all reads are compared; uncut strands gain when others are lost, and binding without cutting may add a little.

test system: T1, Rep nickase domain of Muscovy duck circovirus; experiment: uncleaved DNA left, log2 of reads against the no-enzyme library (log2 ratio); higher = less cleavage (more negative = more Rep cleavage of the k-mer); sequences stand for … in CTCGTCCG…ACCGGAGA
T1 sequence (Rep 1-111, printed without the tag): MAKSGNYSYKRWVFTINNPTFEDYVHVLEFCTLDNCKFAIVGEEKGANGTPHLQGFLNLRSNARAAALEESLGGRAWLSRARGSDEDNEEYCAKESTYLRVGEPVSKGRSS
Protocol: (§1)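 A pool of 90-nt single-stranded DNAs with seven random bases just before the constant AC of the nick site (name = the seven bases) was cut by 3 µM recombinant His6-SUMO-tagged Rep nickase domain (300 nM DNA, 50 mM HEPES pH 8.0, 50 mM NaCl, 1 mM MnCl2, 1 h, 37 °C, three replicates). Uncut DNA was amplified and sequenced.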

Sequence	uncleaved DNA left (log2)
CCTTAGC	0.0498
CGACGCG	-0.0298
GATCTTC	0.0394
CGCGCGA	-0.304
GTTCTTG	0.0688
AGAATCC	0.146
ACCGACT	0.163
TGTTGGA	-0.0883
AGCGCCT	-0.031
TGTCATC	0.0994
AGTAGAA	0.0995
GTCTACT	-0.931
AGGGTAT	0.0683
GACACCC	-0.0728
TTAACGG	0.0882
AGTCGTC	0.151
ACGAAAG	0.0296
CGAATGG	-0.0248
GAAAGCC	-0.0544
GCTGTTC	-0.0254

Sequence	uncleaved DNA left (log2)
CCCGGGC	0.0649
GCACATG	-0.0712
CCGGTGC	0.0407
GAGCTCA	0.042
GAACGAT	0.0322
GCACGAC	-0.0327
ATACCAC	0.035
GGAATTT	-0.0556
TATTTTG	-0.755
CCGCAGT	-0.036
AGCATCT	-0.0719
GCAAAGG	0.113
TATTAGG	-0.156
GAGTGGA	-0.0669
AGACATC	0.0723
CGAGCGG	-0.0868
TTGAGAG	0.129
GCGAGCG	0.0304
GTCACTC	-0.00893
ATCATAA	0.214

test system: T2, Rep nickase domain of banana bunchy top virus; experiment: as above
T2 sequence (Rep 1-94, printed without the tag): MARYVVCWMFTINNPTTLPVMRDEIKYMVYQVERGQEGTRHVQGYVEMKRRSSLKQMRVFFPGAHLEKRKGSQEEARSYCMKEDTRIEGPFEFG
Protocol: as §1

Sequence	uncleaved DNA left (log2)
CCTTAGC	0.0342
CGACGCG	0.2
GATCTTC	0.086
CGCGCGA	-0.344
GTTCTTG	-0.0258
AGAATCC	0.128
ACCGACT	0.138
TGTTGGA	-0.141
AGCGCCT	0.0743
TGTCATC	0.188
AGTAGAA	0.0289
GTCTACT	-0.0274
AGGGTAT	0.0999
GACACCC	0.0595
TTAACGG	0.118
AGTCGTC	0.0298
ACGAAAG	-0.0165
CGAATGG	-0.0203
GAAAGCC	-0.0417
GCTGTTC	0.0766

Sequence	uncleaved DNA left (log2)
CCCGGGC	0.0916
GCACATG	0.00261
CCGGTGC	-0.138
GAGCTCA	-0.000735
GAACGAT	0.0148
GCACGAC	-0.000501
ATACCAC	0.125
GGAATTT	0.069
TATTTTG	-0.0531
CCGCAGT	-0.171
AGCATCT	0.0776
GCAAAGG	0.0286
TATTAGG	-0.14
GAGTGGA	0.00389
AGACATC	0.0682
CGAGCGG	0.0804
TTGAGAG	0.0245
GCGAGCG	0.00791
GTCACTC	0.104
ATCATAA	0.0759

test system: T3, Rep nickase domain of cabbage leaf curl virus; experiment: as above
T3 sequence (Rep 1-116, printed without the tag): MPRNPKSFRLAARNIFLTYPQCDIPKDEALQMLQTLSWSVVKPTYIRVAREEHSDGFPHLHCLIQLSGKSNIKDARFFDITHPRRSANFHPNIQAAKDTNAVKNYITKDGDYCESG
Protocol: as §1

Sequence	uncleaved DNA left (log2)
CCTTAGC	-0.0328
CGACGCG	-0.592
GATCTTC	0.268
CGCGCGA	-0.668
GTTCTTG	0.214
AGAATCC	0.458
ACCGACT	0.022
TGTTGGA	-0.048
AGCGCCT	-0.0368
TGTCATC	0.466
AGTAGAA	0.279
GTCTACT	0.226
AGGGTAT	0.279
GACACCC	0.221
TTAACGG	0.552
AGTCGTC	0.00853
ACGAAAG	-0.646
CGAATGG	-0.112
GAAAGCC	-0.148
GCTGTTC	0.0412

Sequence	uncleaved DNA left (log2)
CCCGGGC	0.323
GCACATG	-0.503
CCGGTGC	-0.242
GAGCTCA	0.0683
GAACGAT	0.234
GCACGAC	-0.0769
ATACCAC	0.121
GGAATTT	0.55
TATTTTG	-0.481
CCGCAGT	-0.348
AGCATCT	-0.011
GCAAAGG	0.0509
TATTAGG	0.339
GAGTGGA	0.395
AGACATC	0.758
CGAGCGG	0.153
TTGAGAG	-0.366
GCGAGCG	-0.224
GTCACTC	0.296
ATCATAA	-0.0068
